PMC12407064
Residue numbers refer to the chain shown, from its start. No constants are given. Whether binding was seen depends on the method and setting. Binding seen in cells or lysates may run through a third protein. Some entries that bind do so weakly or less than the wild type. For some of these results: Tags and fused reporters may be left off the sequences shown.

Sequences of proteins named here, by UniProt entry; tags and fusion partners are left off.
UniProt Q9Y508: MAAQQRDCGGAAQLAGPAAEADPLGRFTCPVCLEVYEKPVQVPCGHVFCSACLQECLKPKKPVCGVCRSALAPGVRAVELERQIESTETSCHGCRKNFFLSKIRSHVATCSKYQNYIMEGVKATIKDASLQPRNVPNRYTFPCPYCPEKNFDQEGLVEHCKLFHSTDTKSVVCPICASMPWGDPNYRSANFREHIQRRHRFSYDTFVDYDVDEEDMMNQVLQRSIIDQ
UniProt Q96A37: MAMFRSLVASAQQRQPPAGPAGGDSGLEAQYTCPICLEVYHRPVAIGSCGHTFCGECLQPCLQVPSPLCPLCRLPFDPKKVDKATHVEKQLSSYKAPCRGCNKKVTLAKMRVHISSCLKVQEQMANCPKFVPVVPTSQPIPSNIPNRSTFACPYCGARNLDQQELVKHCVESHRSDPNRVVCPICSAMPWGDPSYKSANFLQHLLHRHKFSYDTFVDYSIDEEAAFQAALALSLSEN
UniProt O95271: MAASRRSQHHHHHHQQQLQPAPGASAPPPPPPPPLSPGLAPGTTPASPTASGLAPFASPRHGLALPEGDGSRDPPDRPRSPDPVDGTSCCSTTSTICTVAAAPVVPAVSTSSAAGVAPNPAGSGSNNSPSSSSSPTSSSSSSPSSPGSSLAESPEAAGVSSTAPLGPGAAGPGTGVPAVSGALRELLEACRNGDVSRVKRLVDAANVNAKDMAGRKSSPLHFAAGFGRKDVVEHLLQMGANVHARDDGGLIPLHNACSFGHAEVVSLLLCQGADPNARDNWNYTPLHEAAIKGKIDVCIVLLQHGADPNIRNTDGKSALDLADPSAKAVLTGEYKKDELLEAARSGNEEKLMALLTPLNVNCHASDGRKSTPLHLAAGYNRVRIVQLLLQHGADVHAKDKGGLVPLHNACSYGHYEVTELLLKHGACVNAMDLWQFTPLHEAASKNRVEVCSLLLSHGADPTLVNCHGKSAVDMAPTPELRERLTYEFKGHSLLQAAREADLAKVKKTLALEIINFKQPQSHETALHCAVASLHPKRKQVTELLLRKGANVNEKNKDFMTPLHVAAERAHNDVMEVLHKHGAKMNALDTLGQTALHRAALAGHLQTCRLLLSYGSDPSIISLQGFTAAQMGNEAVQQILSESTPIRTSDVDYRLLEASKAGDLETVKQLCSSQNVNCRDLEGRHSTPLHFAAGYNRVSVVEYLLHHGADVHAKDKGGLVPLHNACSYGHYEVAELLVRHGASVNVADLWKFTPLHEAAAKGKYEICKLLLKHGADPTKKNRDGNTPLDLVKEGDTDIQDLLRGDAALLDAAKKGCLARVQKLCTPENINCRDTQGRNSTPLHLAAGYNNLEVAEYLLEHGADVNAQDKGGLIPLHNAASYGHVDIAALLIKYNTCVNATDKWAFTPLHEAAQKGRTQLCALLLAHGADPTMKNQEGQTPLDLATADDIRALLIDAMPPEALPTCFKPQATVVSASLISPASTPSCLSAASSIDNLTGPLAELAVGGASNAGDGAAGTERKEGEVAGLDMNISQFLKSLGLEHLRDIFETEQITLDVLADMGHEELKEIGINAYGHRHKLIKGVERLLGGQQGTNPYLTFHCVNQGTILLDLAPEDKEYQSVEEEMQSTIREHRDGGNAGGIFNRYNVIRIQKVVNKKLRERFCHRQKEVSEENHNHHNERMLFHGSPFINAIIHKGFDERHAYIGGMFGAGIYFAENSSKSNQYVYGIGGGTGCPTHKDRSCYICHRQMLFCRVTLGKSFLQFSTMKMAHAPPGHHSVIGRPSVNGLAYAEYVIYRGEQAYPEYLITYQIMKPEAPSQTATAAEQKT

Key:
[1] = target: T1, MycDTX3 (pRK5-3MycDTX3.WT, 1 to 347) (UniProt Q8N9I9); experiment: co-IP; anti-Myc beads, 2 hours at 4°C, lysates of transfected TNKS1/2 DKO HEK293T cells in TNE buffer; immunoblot
T1 sequence: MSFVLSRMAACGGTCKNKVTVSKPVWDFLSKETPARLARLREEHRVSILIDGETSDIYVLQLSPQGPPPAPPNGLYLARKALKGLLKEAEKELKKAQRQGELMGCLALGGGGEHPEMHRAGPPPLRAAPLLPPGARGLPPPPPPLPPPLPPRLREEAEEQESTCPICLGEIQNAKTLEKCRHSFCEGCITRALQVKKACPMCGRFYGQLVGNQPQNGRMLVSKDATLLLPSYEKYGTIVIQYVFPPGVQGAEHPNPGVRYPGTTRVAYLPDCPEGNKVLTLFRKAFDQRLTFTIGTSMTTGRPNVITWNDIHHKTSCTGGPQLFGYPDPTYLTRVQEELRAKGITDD

[2] = target: T2, FlagDTX2.RD (384 to 622) (UniProt Q86UW9); experiment: co-IP; anti-Flag beads, 2 hours at 4°C, lysates of transfected TNKS1/2 DKO HEK293T cells in TNE buffer (10 mM tris pH 7.8, 1% Nonidet P-40, 0.15 M NaCl, 1 mM EDTA, PARGi, NEM); immunoblot; in Fig. 6F without or with co-transfected MycDTX3
T2 sequence: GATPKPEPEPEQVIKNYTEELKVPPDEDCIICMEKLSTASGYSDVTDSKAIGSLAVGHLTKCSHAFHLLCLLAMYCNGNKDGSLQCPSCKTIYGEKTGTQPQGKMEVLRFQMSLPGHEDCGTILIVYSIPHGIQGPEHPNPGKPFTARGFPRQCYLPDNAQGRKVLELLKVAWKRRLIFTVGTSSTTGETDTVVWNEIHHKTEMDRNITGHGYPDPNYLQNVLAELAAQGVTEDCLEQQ

[3] = target: FlagRNF114 (pCMV3FlagRNF114) (UniProt Q9Y508); experiment: as above
[4] = target: T3, FlagDTX3.WT (1 to 347) (UniProt Q8N9I9); experiment: as above
T3 sequence: T1 sequence

[5] = target: T4, FlagDTX3.RD (152 to 347) (UniProt Q8N9I9); experiment: as above
T4 sequence: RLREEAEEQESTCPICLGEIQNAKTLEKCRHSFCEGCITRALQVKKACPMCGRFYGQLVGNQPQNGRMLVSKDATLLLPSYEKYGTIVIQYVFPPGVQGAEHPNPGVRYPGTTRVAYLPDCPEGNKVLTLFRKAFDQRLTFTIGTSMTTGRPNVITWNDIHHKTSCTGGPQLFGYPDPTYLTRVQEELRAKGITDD

[6] = target: T5, FlagDTX2.WT (1 to 622) (UniProt Q86UW9); experiment: as above
T5 sequence: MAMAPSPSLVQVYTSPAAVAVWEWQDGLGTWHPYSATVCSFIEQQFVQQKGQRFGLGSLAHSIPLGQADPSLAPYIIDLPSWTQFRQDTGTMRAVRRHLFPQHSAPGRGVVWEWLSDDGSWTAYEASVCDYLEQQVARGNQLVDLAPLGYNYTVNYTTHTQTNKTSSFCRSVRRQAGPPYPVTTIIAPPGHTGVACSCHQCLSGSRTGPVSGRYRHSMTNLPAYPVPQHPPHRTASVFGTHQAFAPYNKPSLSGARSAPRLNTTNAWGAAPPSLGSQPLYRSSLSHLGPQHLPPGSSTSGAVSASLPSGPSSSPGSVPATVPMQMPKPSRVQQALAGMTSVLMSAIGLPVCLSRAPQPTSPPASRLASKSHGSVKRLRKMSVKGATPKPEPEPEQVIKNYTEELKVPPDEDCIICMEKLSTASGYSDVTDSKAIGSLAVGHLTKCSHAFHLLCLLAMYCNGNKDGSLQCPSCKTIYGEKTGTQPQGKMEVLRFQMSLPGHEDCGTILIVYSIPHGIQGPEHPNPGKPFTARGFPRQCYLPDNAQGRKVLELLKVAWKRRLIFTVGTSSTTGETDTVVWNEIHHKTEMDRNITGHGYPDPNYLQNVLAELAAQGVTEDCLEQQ

[7] = target: FlagRNF166 (pCMV-3XF-RNF166) (UniProt Q96A37); experiment: as above
[8] = target: T6, FlagDTX3.CD (C164S/C167S) (UniProt Q8N9I9); experiment: as above
T6 sequence: T1 sequence with C164S, C167S

[9] = target: T7, FlagDTX2.PRD (176 to 622) (UniProt Q86UW9); experiment: as above
T7 sequence: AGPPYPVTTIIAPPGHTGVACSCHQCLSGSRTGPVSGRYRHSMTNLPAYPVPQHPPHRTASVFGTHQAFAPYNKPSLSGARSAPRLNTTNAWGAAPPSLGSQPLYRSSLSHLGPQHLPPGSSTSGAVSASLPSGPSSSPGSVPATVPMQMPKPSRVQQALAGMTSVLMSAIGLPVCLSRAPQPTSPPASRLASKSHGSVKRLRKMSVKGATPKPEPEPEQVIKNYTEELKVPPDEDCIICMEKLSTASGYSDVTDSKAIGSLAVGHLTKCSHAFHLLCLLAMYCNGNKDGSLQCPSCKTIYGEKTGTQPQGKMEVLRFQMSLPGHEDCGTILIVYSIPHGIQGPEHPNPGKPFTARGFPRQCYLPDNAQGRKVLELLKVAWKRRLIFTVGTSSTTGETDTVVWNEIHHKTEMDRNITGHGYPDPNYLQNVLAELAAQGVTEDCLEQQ

[10] = target: T8, FlagDTX2.CD (C412A/C415A) (UniProt Q86UW9); experiment: as above
T8 sequence: T5 sequence with C412A, C415A

[11] = target: T9, FlagDTX2.WWE (1 to 187) (UniProt Q86UW9); experiment: as above
T9 sequence: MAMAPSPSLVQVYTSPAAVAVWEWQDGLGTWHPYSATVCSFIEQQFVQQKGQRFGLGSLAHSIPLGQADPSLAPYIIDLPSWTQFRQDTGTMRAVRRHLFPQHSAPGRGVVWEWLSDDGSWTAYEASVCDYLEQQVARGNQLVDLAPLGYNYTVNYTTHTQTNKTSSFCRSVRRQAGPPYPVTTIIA

[12] = target: T10, FlagDTX2.WWE** (W24A/W114A) (UniProt Q86UW9); experiment: as above
T10 sequence: T5 sequence with W24A, W114A

With “FlagRNF166 (pCMV-3XF-RNF166) (from UniProt Q96A37 1-237)” as the substance, how does the binding [1] read?
Its binding is “binds”.

With “FlagRNF114 (pCMV3FlagRNF114) (from UniProt Q9Y508 1-228)” as the substance, how does the binding [1] read?
The binding was “binds”.

What does the source list for “TNKS (tankyrase 1; plasmid TNKS.WT (TT20.WT)) (from UniProt O95271 1-1327)”?
binding [2]: no binding; binding [3]: binds; binding [4]: binds; binding [5]: binds; binding [6]: binds; binding [7]: binds; binding [8]: binds; binding [9]: binds; binding [10]: binds; binding [11]: binds; binding [12]: binds
